Test results as given in patent publication US20260232829A1 (CYTOSPIRE THERAPEUTICS, published 2026).
Blank lines part the entries; values can stand above or below the binder they belong to.

Key:
[1] = molecular target: T1, Human IL-15R beta/CD122 Protein, His Tag (Acro Biosystems CD2-H5221) (human, UniProt P14784 27-239); assay: SPR (Biacore), molecule captured on anti-human IgG Fc chip, antigen as analyte, 1:1 Langmuir fit
T1 construct: Bought recombinant protein with a His tag; also called Human IL-15Rβ protein; IL-15 receptor beta-His
T1 sequence (looked up): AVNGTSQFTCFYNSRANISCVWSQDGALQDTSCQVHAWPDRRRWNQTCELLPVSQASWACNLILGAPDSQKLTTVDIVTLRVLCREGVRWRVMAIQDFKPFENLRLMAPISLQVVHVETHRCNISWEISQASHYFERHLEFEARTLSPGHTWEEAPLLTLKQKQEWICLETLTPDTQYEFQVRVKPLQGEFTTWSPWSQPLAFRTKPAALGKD
Procedure: (§1) In brief, the test molecules were first immobilized on a goat anti-human IgG (Fc specific) antibody plated on a Biacore CM5 Series S sensor chip (CFJB1172, Cytiva Cat No. 29149603) by injection at 5 nM at flow rate 30 ul/min. […] The quality of the fits was assessed by visual inspection.

[2] = molecular target: T2, Human his-tagged NKG2D/CD314 (Acro Biosystems, NKD-H5245) (human, UniProt P26718 78-216, limits assumed); assay: as above
T2 construct: Bought recombinant protein with a His tag; also called Human NKG2D-His protein; NKG2D-His
T2 sequence (looked up): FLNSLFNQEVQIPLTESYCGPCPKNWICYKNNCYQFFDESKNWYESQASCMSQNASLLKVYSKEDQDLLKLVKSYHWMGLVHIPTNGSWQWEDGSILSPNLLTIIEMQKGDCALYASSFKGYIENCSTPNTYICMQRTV
Procedure: as §1

Kd [1]: 2.3 nM
Kd [2]: 0.24 nM
B1: CYTB02 (other)
heavy: QVQLVESGGGLVKPGGSLRLSCAASGFTFSSYGMHWVRQAPGKGLEWVAFIRYDGSNKYYADSVKGRFTISRDNSKNTKYLQMNSLRAEDTAVYYCAKDRGLGDGTYFDYWGQGTTVTVSS[human IgG1 constant region omitted here]GGSITCPPPMSVEHADIWVKSYSLYSRERYICNSGFKRKAGTSSLTECVLNKATNVAHWTTPSLKCIRGGGGSGGGSGGGGS[about 120 residues omitted here]
light: QSALTQPASVSGSPGQSITISCSGSSSNIGNNAVNWYQQLPGKAPKLLIYYDDLLPSGVSDRFSGSKSGTSAFLAISGLQSEDEADYYCAAWDDSLNGPVFGGGTKLTVLGQPKANPTVTLFPPSSEELQANKATLVCLISDFYPGAVTVAWKADGSPVKAGVETTKPSKQSNNKYAASSYLSLTPEQWKSHRSYSCQVTHEGSTVEKTVAPTEC
notes: Immunocytokine, Format A: anti-NKG2D IgG1 (H1/L1) with sushi-IL-15 fused to the C-terminus of each heavy chain

Kd [1]: 2.6 nM
Kd [2]: 0.24 nM
B2: CYTB03 (other)
heavy: QVQLVESGGGLVKPGGSLRLSCAASGFTFSSYGMHWVRQAPGKGLEWVAFIRYDGSNKYYADSVKGRFTISRDNSKNTLYLQMNSLRAEDTAVYYCAKDRGLGDGTYFDYWGQGTTVTVSS[human IgG1 constant region omitted here]GGSITCPPPMSVEHADIWVKSYSLYSRERYICNSGFKRKAGTSSLTECVLNKATNVAHWTTPSLKCIRGGGGSGGGSGGGGS[about 120 residues omitted here]
light: B1 light
notes: Immunocytokine, Format A: anti-NKG2D IgG1 (H1 with framework change/L1) with sushi-IL-15 at the C-terminus of each heavy chain
